Measured values: paper PMC4336329 (PLoS ONE, 2015)
Hit rate of the full screen: of about 310,000 compounds, about 14,000 (4.5%) showed an effect of 50% or more. Effects have a minus sign here. The list shows a part of the results.
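Further: peak tail current of the secondary pulse compared with the same well before compound.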

Each molecule was assayed against human ether-à-go-go-related gene (hERG) potassium channel (human, UniProt Q12809) (assay: primary screen, population patch clamp on CHO cells stably expressing hERG).
Chain of human ether-à-go-go-related gene (hERG) potassium channel (Q12809 whole entry, looked up): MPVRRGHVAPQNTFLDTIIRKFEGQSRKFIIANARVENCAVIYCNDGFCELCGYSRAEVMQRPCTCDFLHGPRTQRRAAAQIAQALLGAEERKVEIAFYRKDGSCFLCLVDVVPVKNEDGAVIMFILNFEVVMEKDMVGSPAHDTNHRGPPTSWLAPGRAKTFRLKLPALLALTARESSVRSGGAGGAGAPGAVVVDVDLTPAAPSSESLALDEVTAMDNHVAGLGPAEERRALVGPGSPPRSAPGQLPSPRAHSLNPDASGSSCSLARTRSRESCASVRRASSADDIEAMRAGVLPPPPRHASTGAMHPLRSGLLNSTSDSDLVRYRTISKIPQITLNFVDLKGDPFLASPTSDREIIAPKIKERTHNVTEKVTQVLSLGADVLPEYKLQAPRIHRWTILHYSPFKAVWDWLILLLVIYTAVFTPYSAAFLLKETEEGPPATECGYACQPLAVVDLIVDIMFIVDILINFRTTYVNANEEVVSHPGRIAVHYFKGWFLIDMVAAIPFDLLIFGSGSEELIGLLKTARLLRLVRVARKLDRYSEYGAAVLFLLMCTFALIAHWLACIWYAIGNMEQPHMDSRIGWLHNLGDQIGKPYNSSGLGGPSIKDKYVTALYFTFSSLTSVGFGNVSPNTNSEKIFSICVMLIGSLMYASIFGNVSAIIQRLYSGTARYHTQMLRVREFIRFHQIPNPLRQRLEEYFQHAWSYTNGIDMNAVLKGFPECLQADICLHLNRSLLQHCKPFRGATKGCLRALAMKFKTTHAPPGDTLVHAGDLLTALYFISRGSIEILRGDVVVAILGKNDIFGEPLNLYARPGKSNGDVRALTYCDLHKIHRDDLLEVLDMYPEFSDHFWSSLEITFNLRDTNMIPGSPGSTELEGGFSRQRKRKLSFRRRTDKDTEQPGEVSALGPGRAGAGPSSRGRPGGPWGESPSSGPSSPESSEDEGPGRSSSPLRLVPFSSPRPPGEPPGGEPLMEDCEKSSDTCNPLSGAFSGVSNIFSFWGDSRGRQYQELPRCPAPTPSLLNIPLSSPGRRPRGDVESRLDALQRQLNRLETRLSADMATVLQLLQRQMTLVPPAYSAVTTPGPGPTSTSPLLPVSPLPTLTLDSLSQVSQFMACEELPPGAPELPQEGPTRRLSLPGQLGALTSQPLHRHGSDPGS
In the case of Cc1ccc2c(c1)N(C(=O)CCC(=O)NC1CCN(Cc3ccccc3)CC1)CC(C)O2 (stereo not shown), the “hERG current change (%, negative = inhibition) at 10uM” value is reported as -67.1%.
With Cc1cc(-c2nnc(SCC(=O)Nc3cccc(Cl)c3)n2N)n[nH]1 the “hERG current change (%, negative = inhibition) at 10uM” value was -71.9%.
For Cc1cc(Nc2ccc(Cl)cc2)n2ncnc2n1, the “hERG current change (%, negative = inhibition) at 10uM” value was -3.23%.
OC1(c2ccccc2)C/C(=N\n2cnnc2)C=C1c1ccccc1 (stereo not shown) was tested, and the “hERG current change (%, negative = inhibition) at 10uM” value was 4.2%.
With CCN1CCN(C(=O)CN(C)S(=O)(=O)c2ccc(OC)cc2)CC1 the “hERG current change (%, negative = inhibition) at 10uM” value was 9.43%.
In the case of C=CCN1CC(=O)N2Cc3[nH]c4ccccc4c3C[C@H]2C1=O, the “hERG current change (%, negative = inhibition) at 10uM” value is reported as 10.7%.
Cc1cc(/N=C/C=C2\N(C)c3ccccc3C2(C)C)n(CCC#N)n1 was tested, and the “hERG current change (%, negative = inhibition) at 10uM” value was -29.8%.
For CCOc1ccc2oc(C(=O)OCC(=O)NC(=O)NC)c(C)c2c1, the “hERG current change (%, negative = inhibition) at 10uM” value was 16.3%.
Cc1cccc(C(=O)OCC(=O)NCC2COc3ccccc3O2)c1 (stereo not shown) was tested, and the “hERG current change (%, negative = inhibition) at 10uM” value was 2.05%.
O=C(Nc1nnc(-c2cccs2)o1)C1CC1 was tested, and the “hERG current change (%, negative = inhibition) at 10uM” value was 3.93%.
For N#C/C(=C\c1c(F)cccc1Cl)c1nn(-c2ccccc2)c(-n2cccc2)c1C#N, the “hERG current change (%, negative = inhibition) at 10uM” value was 13.6%.
For Cc1cc(C)c(S(=O)(=O)c2ccccc2C)c(OCC(C)(C)C)n1, the “hERG current change (%, negative = inhibition) at 10uM” value was 0.171%.
C=C1CCN([C@@H](CC(C)C)C(=O)NCc2ccccc2)S(=O)(=O)c2ccccc21 was tested, and the “hERG current change (%, negative = inhibition) at 10uM” value was -9.68%.
Cc1ccc(-n2ncc(Cl)c2C(=O)NC2CC2)cc1 was tested, and the “hERG current change (%, negative = inhibition) at 10uM” value was -17.7%.
In the case of O=c1c2c(nc3cc(-c4ccccc4)[nH]n13)CCS2, the “hERG current change (%, negative = inhibition) at 10uM” value is reported as 21.6%.
For COc1ccc(NC(=O)CCNS(=O)(=O)c2ccc(C)c(C)c2)cc1OC, the “hERG current change (%, negative = inhibition) at 10uM” value was 16.5%.
In the case of Cc1nnc(NC(=O)CCS(=O)(=O)Cc2ccccc2)s1, the “hERG current change (%, negative = inhibition) at 10uM” value is reported as -48.4%.
In the case of COc1cc(/C=C/C(=O)OCC(=O)NCCN2C(=O)CSC2=O)ccc1OCC#N, the “hERG current change (%, negative = inhibition) at 10uM” value is reported as -3.08%.
For CCCNC(=S)N1CCC(NC(=O)C23CC4CC(CC(C4)C2)C3)CC1, the “hERG current change (%, negative = inhibition) at 10uM” value was -0.892%.
In the case of CCOC(=O)Nc1ccc2c(c1)N(C(=O)CN(CC)CC)c1ccccc1C=C2.Cl.O, the “hERG current change (%, negative = inhibition) at 10uM” value is reported as -19.1%.
With CCN(c1ccc(NC(=O)c2cccc(S(=O)(=O)N3CCN(C)CC3)c2)cc1)C(C)C the “hERG current change (%, negative = inhibition) at 10uM” value was -41.3%.
In the case of CC(C)(C)OC(=O)N[C@@H](Cc1ccccc1)c1nnc(S(=O)(=O)Cc2ccccc2)o1, the “hERG current change (%, negative = inhibition) at 10uM” value is reported as -1.97%.
For Cn1c(=O)[nH]c2nncnc2c1=O, the “hERG current change (%, negative = inhibition) at 10uM” value was -13%.
With CC12CCC(=O)N1C(C(=O)Nc1ccc(F)cc1)CS2 (stereo not shown) the “hERG current change (%, negative = inhibition) at 10uM” value was 12.4%.
CC(=O)c1c(C)oc2ccc(NS(=O)(=O)c3ccc(C)cc3)cc12 was tested, and the “hERG current change (%, negative = inhibition) at 10uM” value was 13.8%.
